Reference: the supplement of paper PMC12632987
Whole data set: some 4,500 sequences, median “median log2 fold change of GCK-ALFA target abundance (FLAG IP / Myc IP barcode read proportion)” near 0.078, cut for the lowest 2% near -0.6. This is one part of the list.

B1: GBRAP_160_4778 (protein)
chain: SEKVEELKKSIEEAKEEILESIDTESPEETIIVVKGETGLILAEAYELEIDNDELEDALDEIGDELIEEMKKNKNASKEELKKIVEEYTEKALKKIEELT
B2: GBRAP_128_3304 (protein)
chain: MNEEAIKKAKELAEKMVEADVEEAAEITKQIVELMAKLSPEEREIVAEIMEEKFKELDAEKLDAVADVLREQRPKLDPETANLVAGLEVEALNEAEEKEE
B3: GBRAP_184_5338 (protein)
chain: KTLEVHIPNASLEEVKAALAAELRRAAAEGAALTVTIDAEGYSTEELEELLRWIGEEAKRLGLKDVTVGIDQEVNEEDADRLLEIADEYGIRLTLALSDE
B4: GBRAP_128_3580 (protein)
chain: SVEEVKERVRRLLEEMKTADPERRKAIAREIAEEFTKLSLEEAEAAAETIEELLPELSAEDLEILADALREARPKADPEHANLIADVQVAALNEALEKEE
B5: GBRAP_52_6079 (protein)
chain: MEEKIKEIAEKIVEAIKAGDLEKALELAKKAIKELSIEEIKEMLKLAAKKVAELGEEEHERFVELLDEVYDLMLEEGISEEDALLIVGDAEAALAKEVAA
B6: GBRAP_128_3499 (protein)
chain: SMEEAVEETKELMDKIAEASPEETRELTKELVELIASVNEEVAEAMADAVIEKLPELSAEALEVVADTLEELRPKVNPFVANLLADIQVEALNRLEELEE
B7: GBRAP_78_6578 (protein)
chain: EVEEEIDKAIEHLGEARKLARELPEEERNELLYLIVEAESYLLESEENGFDLEYLEEARKHVKEAIELVEKIDHPVAAKIREELEKALEHLEKAIELVKK
B8: GBRAP_83_6934 (protein)
chain: AEEITVVANSDTIEEAFEIAIDLHKEEGLKVTLEVSITREDIPLLLEEFEKLAEAGVDVELEILLTGATEEEAEELKKKLLEIAEKYGVKAEVEVELVEP
B9: GBRAP_52_6096 (protein)
chain: SAELLEEYARRLVEAARAGDVERATAILLEAVESLSDEEFLEMLRLAAELAAKLPADELERVTEVFLEALDRVAEETGREELMDLAAAEFAAIAYAALQA
B10: GBRAP_139_3691 (protein)
chain: SELEEKLEEGRRLTREAVEKGRPALIRLAEFLVSLSEEEREKVAEAIGRELLPLPYDEAEKLFEELIEILLEEFGDEDTAEIVEAAANRTLAEIAVREEA
B11: GBRAP_184_5161 (protein)
chain: KVLEFTLEAKNKEEVEEKLEEIREEAKKTKGDLYVILRLENPTKEMLRLILETLGEILEEGLAKNVVLGIENDLDEEMIDFVLELADEKGVRVVVAIPEE
B12: GBRAP_184_5059 (protein)
chain: KVFEEVIEAENLEELEEKLKELEEKVKNHKGDLIVLVKVPEFTKEMVETLMARLKEILDKGYASSVTVGLDGKMSEEVRDLAIELADKAGVKLTLALEEE
B13: GBRAP_128_3566 (protein)
chain: STAELVARARELLERIKASGPEEARALARELAALIAAASPEAREAIVETILALLPELTPEQLDILADVFREARPTADPATAEALAEIEVEALNVREEKEE
B14: GBRAP_74_6552 (protein)
chain: SEELKKEIKKAAEAGDADKLIKLAEEAAEKGNLEALKVALLELAKAAVKAAEAGDEETLEKLIEKIVELLEKIDDLDLSDETLDAIAAAIKAAHELELAK
B15: GBRAP_80_6843 (protein)
chain: AAAALAAARAALYAALPEAAPLVDEVIALARELGVPDSVIAELVAALAELAAADPALAAALLEELLADLRELKEEGRTDEAEAVVRGYAGEALLAAEELE
B16: GBRAP_9_7183 (protein)
chain: TAEAKQKILENAKEEAELALEVTPEDKKAAIAAAVKEMLDELTALVADPNTTLEELLKALEKGAERIKELAEKELDPETARQIEAILDTAILYAEEIVEE
B17: GBRAP_9_7111 (protein)
chain: LADLAAKFKAIVKDLEEELKKVVPEEVKPTVDKGTAAILAAIDAAAADPTVTKEQLLATTKALLAALLKELKAKTTPEVAAAVETEILTAEVEIEEAAEE
B18: GBRAP_184_5364 (protein)
chain: EVENLSIDAETAEEVEEKLAAARDEIKASGKPTNLFLFLKNADLETFEKGAKLLAELKAEGLIKRGTIVLDDERTEEEVDKLVKIADKYGVNLVVALKDE
B19: GBRAP_128_3441 (protein)
chain: SQEELLKKAFELIDEIVKSDVETAKELTKKLAEVLKELNEEGRDKVVEYFEEKAKELSEEKLEAVEDALREEIPKADPLTANYLAEMAVIAGERILELEE

molecular target: GABARAP, O95166; test: median log2 fold change of GCK-ALFA target abundance (FLAG IP / Myc IP barcode read proportion) (log2 ratio); each designed protein is fused to an ALFA-tag nanobody in HEK293 cells to bring the named protein to FLAG-tagged glucokinase (GCK); Myc marks an untargeted standard; higher = target protein stabilised (more abundant); conditions: target protein: 3xFLAG-MCP-GCK-ALFA reporter; HEK293 landing pad (RPLP)
Method in brief: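 Binders fused to an ALFA nanobody were recombined as a library into HEK293 landing-pad cells, which were induced with 2 μg mL^−1 doxycycline and then transfected to express a FLAG-tagged target and a Myc-tagged standard. After 48 h, circular RNA barcodes recovered by anti-FLAG and anti-Myc immunoprecipitation of lysates were reverse transcribed, amplified and sequenced. Each binder's target abundance is the median log2 ratio of FLAG to Myc barcode read proportions, from barcodes present at ≥10^−7 in both replicates, binders carrying ≥3 barcodes per replicate, a 10^−6 pseudocount and pooled replicates.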

GABARAP, O95166, sequence (O95166 whole entry, the tested form may be a part): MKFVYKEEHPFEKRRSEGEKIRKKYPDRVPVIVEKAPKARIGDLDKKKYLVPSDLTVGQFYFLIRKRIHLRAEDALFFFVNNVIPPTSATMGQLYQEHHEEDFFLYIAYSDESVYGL

Point of comparison: B3, “median log2 fold change” value 0.219. Against it:
- B1 — within 0.2 log units, 0.139
- B2 — within 0.2 log units, 0.302
- B4 — within 0.2 log units, 0.102
- B5 — lower, -0.103
- B6 — within 0.2 log units, 0.125
- B7 — within 0.2 log units, 0.067
- B8 — lower, 0.0136
- B9 — lower, -0.198
- B10 — within 0.2 log units, 0.0916
- B11 — lower, -0.0691
- B12 — within 0.2 log units, 0.19
- B13 — within 0.2 log units, 0.19
- B14 — lower, -0.125
- B15 — lower, -0.213
- B16 — within 0.2 log units, 0.387
- B17 — within 0.2 log units, 0.346
- B18 — lower, -0.0701
- B19 — within 0.2 log units, 0.227
